# A collection of fitness landscapes (doi:10.1016/j.celrep.2020.107928)
# Over roughly 81,000 sequences, “one-hybrid fitness for binding parS DNA” has its median near -0.17; the highest 2% begin near 0.51. Some of the results follow.
# B1: Caulobacter ParB omega fusion; a variant is named by its letters at X, in order, B8GW30 (parent)
# chain: MESVVVGEPGMSEGRRGLGRGLSALLGEVDAAPAQAPGEQLGGSREAPIEILQRNPDQPRRTFREEDLEDLSNSIREKGVLQPILVRPSPDTAGEYQIVAGERAWRAAQRAGLKTVPIMVRELDDLAVLEIGIIENVQRADLNVLEEALSYKVLMEKFERTQENIAQTIGKSXSHVANXMRLLXLPDEVQSYLVSGELTAXHARAIAAAADPVALAKQIIEGGLSVRETEALARKAPNLSAGKSKGGRPPRVKDTDTQALESDLSSVLGLDVSIDHRGSTGTLTITYATLEQLDDLCNRLTRGI
# Variants of: B1
# Experiment: one-hybrid fitness for binding parS DNA (scaled: cognate 1, non-cognate 0); higher = stronger binding
# Settings: with parS DNA site
# Outline: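 On M9-minus-histidine containing 0.1 mM IPTG and 5 mM 3-AT, E. coli USO cells with a HIS3 reporter, site 19 bp from the promoter, grew 48 hours at 37°C to select Caulobacter ParB libraries randomised at four specificity codons. Plasmids from before and after were Illumina-sequenced, with three replicate libraries pooled and variants under 10 reads left out. Fitness is the log change in variant-to-wild-type read ratio, rescaled against cognate and non-cognate.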
row,Variant,one-hybrid fitness for binding parS DNA
1,VRIW,≤ 0.2
2,VETW,≤ 0.2
3,DMTV,≤ 0.2
4,FNVR,≤ 0.2
5,PMSR,≤ 0.2
6,ETPF,≤ 0.2
7,GLLE,≤ 0.2
8,CHLS,≤ 0.2
9,ACAL,≤ 0.2
10,IKTG,≤ 0.2
11,DCMR,≤ 0.2
12,WQMG,≤ 0.2
13,WCYR,≤ 0.2
14,TTTP,≤ 0.2
15,VPSF,≤ 0.2
16,LPTE,≤ 0.2
17,HWMS,≤ 0.2
18,GPQR,≤ 0.2
19,QASV,≤ 0.2
20,APSI,≤ 0.2
21,AYIV,≤ 0.2
22,SLLD,≤ 0.2
23,IDMS,≤ 0.2
24,NHKS,≤ 0.2
25,KTNA,≤ 0.2

row,Variant,one-hybrid fitness for binding parS DNA
1,CVWV,≤ 0.2
2,RGRI,≤ 0.2
3,SDAG,≤ 0.2
4,PRIT,≤ 0.2
5,GCPS,≤ 0.2
6,SLGL,≤ 0.2
7,KPMP,≤ 0.2
8,EMLR,≤ 0.2
9,AFEM,≤ 0.2
10,DYMG,≤ 0.2
11,RYVP,≤ 0.2
12,NTGT,≤ 0.2
13,PNLS,≤ 0.2
14,LNFL,≤ 0.2
15,MCRM,≤ 0.2
16,HAPT,≤ 0.2
17,RKCM,0.286
18,QNPS,≤ 0.2
19,VSGN,≤ 0.2
20,CDWS,≤ 0.2
21,RGKC,0.833
22,CQMG,≤ 0.2
23,TPWY,≤ 0.2
24,PAPW,≤ 0.2
25,TSCR,≤ 0.2

row,Variant,one-hybrid fitness for binding parS DNA
1,GNDY,≤ 0.2
2,DSCS,≤ 0.2
3,MPDT,≤ 0.2
4,NWVS,≤ 0.2
5,RAHC,0.983
6,RRGI,≤ 0.2
7,QSVT,≤ 0.2
8,WSKC,≤ 0.2
9,EDIR,≤ 0.2
10,GRKA,≤ 0.2
11,WTCC,≤ 0.2
12,TQSA,≤ 0.2
13,KSKS,≤ 0.2
14,ATSP,≤ 0.2
15,MCTF,≤ 0.2
16,QMAT,≤ 0.2
17,DHLR,≤ 0.2
18,WMCS,≤ 0.2
19,PHQT,≤ 0.2
20,NEGL,≤ 0.2
21,DDTG,≤ 0.2
22,LHLG,≤ 0.2
23,EMDR,≤ 0.2
24,MVDT,≤ 0.2
25,PMNI,≤ 0.2

row,Variant,one-hybrid fitness for binding parS DNA
1,RTHW,0.243
2,FGHL,≤ 0.2
3,FWRS,≤ 0.2
4,SPVF,≤ 0.2
5,WNKS,≤ 0.2
6,VLMR,≤ 0.2
7,EKDS,≤ 0.2
8,WLVT,≤ 0.2
9,SNFS,≤ 0.2
10,GMYM,≤ 0.2
11,AKKL,≤ 0.2
12,FSLK,≤ 0.2
13,TPRR,≤ 0.2
14,RYIG,0.793
15,NTTE,≤ 0.2
16,PGCV,≤ 0.2
17,CIYR,≤ 0.2
18,FPKR,≤ 0.2
19,FHTA,≤ 0.2
20,RWSI,≤ 0.2
21,EGPG,≤ 0.2
22,HIHR,≤ 0.2
23,QGTV,≤ 0.2
24,RYAK,≤ 0.2
25,CSFP,≤ 0.2

row,Variant,one-hybrid fitness for binding parS DNA
1,SVPH,≤ 0.2
2,SWPC,≤ 0.2
3,HLIC,≤ 0.2
4,RFTK,≤ 0.2
5,RGNW,≤ 0.2
6,RAAY,0.478
7,SWVK,≤ 0.2
8,TNVV,≤ 0.2
9,FEMR,≤ 0.2
10,PRKN,≤ 0.2
11,RSSE,≤ 0.2
12,RANT,0.907
13,RNMM,0.205
14,CNQS,≤ 0.2
15,RQDQ,≤ 0.2
16,GEIS,≤ 0.2
17,QSLH,≤ 0.2
18,RMDS,1.02
19,PQII,≤ 0.2
20,CIFG,≤ 0.2
21,HYTQ,≤ 0.2
22,RQHL,≤ 0.2
23,CSIT,≤ 0.2
24,LCGS,≤ 0.2
25,KLDI,≤ 0.2

row,Variant,one-hybrid fitness for binding parS DNA
1,SARV,≤ 0.2
2,RPFD,≤ 0.2
3,LPFS,≤ 0.2
4,VILE,≤ 0.2
5,TAWW,≤ 0.2
6,SNIS,≤ 0.2
7,QARH,≤ 0.2
8,QNFR,≤ 0.2
9,PAAT,≤ 0.2
10,GDTH,≤ 0.2
11,TMNP,≤ 0.2
12,SNYQ,≤ 0.2
13,YANR,≤ 0.2
14,APMR,≤ 0.2
15,PKDS,≤ 0.2
16,TLLV,≤ 0.2
17,MQAS,≤ 0.2
18,QFSD,≤ 0.2
19,AVLE,≤ 0.2
20,EYIL,≤ 0.2
21,CTTT,≤ 0.2
22,YMQG,≤ 0.2
23,AKQM,≤ 0.2
24,QYEK,≤ 0.2
25,PTRH,≤ 0.2

row,Variant,one-hybrid fitness for binding parS DNA
1,DISG,≤ 0.2
2,LCEF,≤ 0.2
3,QYGR,≤ 0.2
4,VGRT,≤ 0.2
5,NQYR,≤ 0.2
6,QYKW,≤ 0.2
7,IEKS,≤ 0.2
8,RCSF,0.212
9,TFHF,≤ 0.2
10,YAWG,≤ 0.2
11,HPYR,≤ 0.2
12,KLTW,≤ 0.2
13,LGLD,≤ 0.2
14,QCKD,≤ 0.2
15,HTDN,≤ 0.2
16,QTPK,≤ 0.2
17,WTQV,≤ 0.2
18,ATYR,≤ 0.2
19,HANG,≤ 0.2
20,GVLA,≤ 0.2
21,QVHM,≤ 0.2
22,FNNM,≤ 0.2
23,EVLR,≤ 0.2
24,SMMG,≤ 0.2
25,TTGA,≤ 0.2

row,Variant,one-hybrid fitness for binding parS DNA
1,YRNA,≤ 0.2
2,DYFR,≤ 0.2
3,LENF,≤ 0.2
4,PKEE,≤ 0.2
5,PKHR,≤ 0.2
6,VNVA,≤ 0.2
7,NCVS,≤ 0.2
8,PNSV,≤ 0.2
9,KSVF,≤ 0.2
10,EDAK,≤ 0.2
11,LQSG,≤ 0.2
12,ILPF,≤ 0.2
13,DSHE,≤ 0.2
14,PFLG,≤ 0.2
15,YWRT,≤ 0.2
16,VIKV,≤ 0.2
17,PETY,≤ 0.2
18,TPHS,≤ 0.2
19,MDNA,≤ 0.2
20,PKGL,≤ 0.2
